About 5,300 (4.4%) of roughly 120,000 compounds were called active. Inconclusive means that the source gave no clear call. Such entries were picked first, then a sample of the others. Calls come from the whole dose curve; as a rule, active = well fitted inhibition curve with a large enough effect; inconclusive = small, poorly fitted or top-dose-only effect; inactive = no such curve, though single readings can be large or run the other way. Where the call is inconclusive, the potency comes from a doubtful curve fit.
Experiment: qHTS Primary assay for Inhibitors of Plasmodium falciparum Dd2 growth in vitro; note: nearly all actives have a fitted effect of over 65% in size
Conditions: P. falciparum Dd2 growth, SYBR Green, 72 h; series mostly up to 28.9 µM
In short: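 Infected erythrocytes (Dd2, 0.3% parasitemia, 2.5% hematocrit final) are added to compound in RPMI-1640/Albumax II medium, grown 72 h at 37C in low oxygen, then lysed with saponin/Triton-X containing SYBR Green and read by fluorescence.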
Potency is the fitted concentration of half-maximal effect; tags give direction and shape of the fitted curve.

| SMILES | Potency |
| --- | --- |
| Cc1n[nH]c(C)c1Cc1ccc(C(=O)NCC2Cn3cccc3CN2C)o1 (stereo not drawn) | inconclusive: 17.8 µM [inhibitor, single point] |
| Clc1ccc(CN2CCC3(CC2)CC(Cc2ccccc2)=NO3)cc1 | inconclusive: 8.91 µM [inhibitor, partial curve] |
| Cc1nnc(SCC(=O)Nc2ccc(N(C)C)cc2)[nH]c1=O | active: 11.2 µM |
| CCOC(=O)N1CCc2c(sc3c2C(=O)NC(c2ccc(C(=O)OC)cc2)N3)C1 (stereo not drawn) | inconclusive: 12.6 µM [inhibitor, single point] |
| CCc1ccc(NC(=O)Cn2c(=O)n(CCCC(=O)NCCc3ccc(OC)c(OC)c3)c(=O)c3ccccc32)cc1 | inconclusive: 8.91 µM [inhibitor, single point] |
| CCOc1ccc(CNC(=O)C2CCN(C(=O)N3CC(CC)Oc4ccc(C)cc43)CC2)cc1OC (stereo not drawn) | inconclusive: 11.2 µM [inhibitor, single point] |
| Cc1cc(=O)n(CC(=O)Nc2ccc(C(C)C)cc2)c(N2CCOCC2)n1 | inconclusive: 17.8 µM [inhibitor, single point] |
| COc1ccccc1NC(=O)Cn1c(=O)n(CC2CCC(C(=O)NCCc3ccccc3)CC2)c(=O)c2ccccc21 (stereo not drawn) | inconclusive: 12.6 µM [inhibitor, partial curve, poor fit] |
| Cc1ccccc1N1CC(c2nc3ccccc3n2Cc2ccc(Br)cc2)CC1=O (stereo not drawn) | inconclusive: 8.91 µM [inhibitor, single point] |
| Cc1cccc(OCC(=O)N2CCC(c3n[nH]c(=O)n3-c3ccccc3)CC2)c1 | inconclusive: 1.58 µM [inhibitor, full curve] |
| Cc1nc(CN2CC3(CCN(C)C3)c3cc(C(=O)Nc4ccc(F)cc4)ccc32)cs1 (stereo not drawn) | inconclusive: 3.98 µM [inhibitor, full curve, poor fit] |
| COc1ccc(C(=O)N2CC[C@H]3C(=O)NCCCCCCN(Cc4ccncc4)[C@@H]3C2)cc1 | inconclusive: 11.2 µM [inhibitor, partial curve] |
| COc1ccc(OC)c(C(=O)CN2C(=O)N(c3ccc(C)cc3)S(=O)(=O)c3ccccc32)c1 | inconclusive: 7.08 µM [inhibitor, partial curve] |
| COc1ccc(-c2[nH]ncc2CN2CCCCCNC(=O)CC2c2ccccc2)cc1 (stereo not drawn) | inconclusive: 4.47 µM [inhibitor, partial curve, poor fit] |
| Cn1cc(CN2CCCN(C(=O)c3ccco3)CC2)c(-c2ccc(C3CCCCC3)cc2)n1 | active: 8.91 µM |
| O=C(Cn1c(-c2cccs2)cc2ccccc21)N1CCN(c2ccc(F)cc2)CC1 | inconclusive: 17.8 µM [inhibitor, single point] |
| O=C(NCc1ccc2c(c1)CCN2C(=O)c1ccccc1)c1ccccc1 | inconclusive: 10 µM [inhibitor, single point] |
| CCOc1ccccc1NC(=O)N1CCC(OC2CCN(S(C)(=O)=O)CC2)CC1 | inactive |
| COC(=O)c1sc2ncccc2c1-n1c(C)ccc1C | inconclusive: 11.2 µM [inhibitor, partial curve, poor fit] |

| SMILES | Potency |
| --- | --- |
| N#Cc1cccc(C(=O)N2CCCN(Cc3ccncc3)C(c3ccccc3)CC(=O)NCC2)c1 (stereo not drawn) | inconclusive: 1.41 µM [inhibitor, full curve, poor fit] |
| COc1ccccc1CNS(=O)(=O)c1ccc2c(c1)CC(=O)N2C | inconclusive: 0.0089 µM [inhibitor, full curve, poor fit] |
| CCOC(=O)N1CCN(C(=O)c2c(C)nn(-c3cccc(C)c3)c2-n2cccc2)CC1 | inconclusive: 12.6 µM [inhibitor, single point] |
| O=C(NC1CCCC1)N1c2ccccc2CC1c1noc(C2CCOCC2)n1 (stereo not drawn) | inconclusive: 17.8 µM [inhibitor, single point] |
| CC(=O)Nc1ccc(CNC[C@H]2COCc3nc4ccc(C)cc4n32)cc1 | inconclusive: 8.91 µM [inhibitor, partial curve] |
| COc1ccc(NC(=O)CCn2c(=O)c3cccn3c3cccnc32)cc1Cl | inconclusive: 12.6 µM [inhibitor, partial curve, poor fit] |
| NC(=O)[C@@H]1CN(C(=O)C2CCC2)C[C@H]1COc1ccccc1 | inactive |
| CC(=O)Nc1ccc(S(=O)(=O)N2CCC(c3nnc(-c4ccc(C)cc4)o3)CC2)cc1 | inconclusive: 7.94 µM [inhibitor, partial curve, poor fit] |
| Cc1nc(-c2cccc(Cl)c2)n(Cc2nc(-c3ccc(OC(C)C)cc3)oc2C)c(=O)c1CCO | inconclusive: 10 µM [inhibitor, single point] |
| CCc1nc(-c2c3n(c(=O)n(CC(=O)Nc4ccc(C)cc4)c2=O)CCCC3)no1 | inactive |
| C[S+](=O)([O-])N1CCC2(C1)OC(=O)Nc1cnccc12 (stereo not drawn) | inactive |
| CCN(CC)C(=O)c1sc2c(c1C)c(=O)n(-c1ccc(Cl)c(Cl)c1)c(=O)n2Cc1cc(=O)n2ccccc2n1 | inconclusive: 17.8 µM [inhibitor, single point] |
| CCNc1cc(N2CCC(CCC(=O)Nc3ccc4c(c3)OCCO4)CC2)ncn1 | inconclusive: 11.2 µM [inhibitor, partial curve, poor fit] |
| COc1ccc(C2(C(=O)N3C[C@@H](C(N)=O)[C@H](c4n[nH]c(C)n4)C3)CC2)cc1 | inactive |
| CCOc1ccc(-c2cn(-c3ccc(C)cc3)c(SCC(=O)Nc3ccc(C)cc3)n2)cc1 | inconclusive: 11.2 µM [inhibitor, single point] |
| Cc1ccc(NC(=O)Cc2coc3ccc(C(C)C)cc23)c(C)c1 | inconclusive: 10 µM [inhibitor, single point] |
| Cc1ccc(S(=O)(=O)N2CCc3cc(C(=O)Nc4ccc(C(F)(F)F)cc4)ccc32)cc1 | inconclusive: 11.2 µM [inhibitor, single point] |
| COc1ccc(N2C(=O)C3(CCCCC3)C2C(=O)NCCCN2CCCCC2)cc1 (stereo not drawn) | active: 11.2 µM |
| O=C(Cc1c[nH]c2ncc(-c3ccc(Cl)cc3)cc12)NCc1cccnc1 | inconclusive: 0.112 µM [inhibitor, full curve, poor fit] |
